# Measurements from paper PMC11995724, “Antibiotic target discovery by integrated phenotypic and activity-based profiling of electrophilic fragments” (Cell chemical biology, 2025).
# Out of some 3,200 compounds screened, about 110 (3.4%) showed an effect of 50% or more. The list shows a part of the results.
# System: T1, V. cholerae SAD30
# T1 construct: SAD30
# Set-up: species or system S. aureus MSSA476 (TSB) or V. cholerae SAD30 (LB); 384-well bacterial growth screen at 25 uM, OD600 relative to DMSO control
# Conditions: relative growth, OD600, LB; 25 µM; inhibitor
row,SMILES,% of control remaining
1,"N#Cc1ccccc1NC(=O)CCl [5-P04, 2-chloro-N-(2-cyanophenyl)acetamide]",116.339%
2,"CCCn1c(C)cc(C=C(C#N)C(=O)N2CCC2)c1C [8-L08, 2-(azetidine-1-carbonyl)-3-(2,5-dimethyl-1-propyl-1H-pyrrol-3-yl)prop-2-enenitrile]",60.707%
3,"CC(Cl)C(=O)N1CCN(C2=NS(=O)(=O)c3ccccc32)CC1 (centres unmarked) [7-K11, 3-[4-(2-chloropropanoyl)piperazin-1-yl]-1lambda6,2-benzothiazole-1,1-dione]",77.4492%
4,"C=CC(=O)NCc1ccc(C(=O)N2CCC[C@H]2C(=O)NC)cc1 [3-L06, (2S)-N-methyl-1-{4-[(prop-2-enamido)methyl]benzoyl}pyrrolidine-2-carboxamide]",95.0891%
5,"CC(Cl)C(=O)NC1CCc2nc(-c3cc(F)ccc3F)cn2C1 (centres unmarked) [7-K10, 2-chloro-N-[2-(2,5-difluorophenyl)-5H,6H,7H,8H-imidazo[1,2-a]pyridin-6-yl]propanamide]",75.8632%
6,"O=C(CCl)C1CCC2(CC1)CC2 [10-C17, 2-chloro-1-{spiro[2.5]octan-6-yl}ethan-1-one]",115.488%
7,"COc1ccc(C2=NN(C(=O)CCl)C(c3ccc(F)cc3)C2)cc1 (centres unmarked) [4-M20, 2-chloro-1-[5-(4-fluorophenyl)-3-(4-methoxyphenyl)-4,5-dihydro-1H-pyrazol-1-yl]ethan-1-one]",100.927%
8,"C=CC(=O)N1CCCC(n2ccnn2)C1 (centres unmarked) [1-D09, 1-[3-(1H-1,2,3-triazol-1-yl)piperidin-1-yl]prop-2-en-1-one]",92.2272%
9,"C=CC(=O)N(CC(C)(C)C)C1CCN(c2ccc(C#N)cn2)CC1 [1-N09, N-[1-(5-cyanopyridin-2-yl)piperidin-4-yl]-N-(2,2-dimethylpropyl)prop-2-enamide]",82.8102%
10,"C=CC(=O)N1CCC(C(=O)Nc2cc(Cl)ccc2SCC)CC1 [1-E06, N-[5-chloro-2-(ethylsulfanyl)phenyl]-1-(prop-2-enoyl)piperidine-4-carboxamide]",79.2227%
11,"C=CC(=O)NCc1cscn1 [1-I07, N-[(1,3-thiazol-4-yl)methyl]prop-2-enamide]",90.1345%
12,"N#CC(=Cc1cccs1)C(=O)Nc1ccccc1Cl [9-L11, N-(2-chlorophenyl)-2-cyano-3-(thiophen-2-yl)prop-2-enamide]",87.3555%
13,"N#CC(=CC=Cc1ccccc1)C(=O)Nc1ccc(F)c(Cl)c1 [8-O18, N-(3-chloro-4-fluorophenyl)-2-cyano-5-phenylpenta-2,4-dienamide]",78.9259%
14,"C=CC(=O)NC(C)c1ccc(Oc2ccccc2)c(F)c1 (centres unmarked) [2-H13, N-[1-(3-fluoro-4-phenoxyphenyl)ethyl]prop-2-enamide]",84.6377%
15,"C=CC(=O)NCc1ccc(C(=O)N2CCCOC(C)(C)C2)cc1 [3-N06, N-{[4-(2,2-dimethyl-1,4-oxazepane-4-carbonyl)phenyl]methyl}prop-2-enamide]",99.6765%
16,"CCCc1ccc(-c2csc(NC(=O)CCl)n2)cc1 [4-C09, 2-chloro-N-[4-(4-propylphenyl)-1,3-thiazol-2-yl]acetamide]",93.3362%
17,"Cc1cc(N2CCCC(NC(=O)C(C)Cl)C2=O)n(C)n1 (centres unmarked) [7-B13, 2-chloro-N-[1-(1,3-dimethyl-1H-pyrazol-5-yl)-2-oxopiperidin-3-yl]propanamide]",83.2645%
18,"O=C1C=CC(=O)N1c1cnccn1 [10-P07, 1-(pyrazin-2-yl)-2,5-dihydro-1H-pyrrole-2,5-dione]",97.4089%
19,"C=CC(=O)N1CCC(C(=O)Nc2cc(OCC)ccc2Cl)CC1 [1-I20, N-(2-chloro-5-ethoxyphenyl)-1-(prop-2-enoyl)piperidine-4-carboxamide]",84.006%
20,"C=CC(=O)N1CCCC(C(=O)O)C1 (centres unmarked) [1-G12, 1-(prop-2-enoyl)piperidine-3-carboxylic acid]",97.0105%
21,"COc1ccc(C(NC(=O)CCl)C2CC2)cc1 (centres unmarked) [4-K19, 2-chloro-N-[cyclopropyl(4-methoxyphenyl)methyl]acetamide]",103.343%
22,"CC1=CSC(=C(C#N)C(=O)NCc2ccco2)N1c1ccccc1 [8-D13, 2-cyano-N-[(furan-2-yl)methyl]-2-(4-methyl-3-phenyl-2,3-dihydro-1,3-thiazol-2-ylidene)acetamide]",70.7682%
23,"COc1ccc(Cc2cnc(NC(=O)CCl)s2)cc1 [4-F17, 2-chloro-N-{5-[(4-methoxyphenyl)methyl]-1,3-thiazol-2-yl}acetamide]",111.451%
24,"Cc1ccc(NC(=O)C(C#N)=Cc2ccccc2OC(F)F)cc1 [9-D05, 2-cyano-3-[2-(difluoromethoxy)phenyl]-N-(4-methylphenyl)prop-2-enamide]",79.6057%
25,"O=C(CCl)NC(Cc1cccc(O)c1)c1ccccc1 (centres unmarked) [7-N20, 2-chloro-N-[2-(3-hydroxyphenyl)-1-phenylethyl]acetamide]",81.5463%
26,"C=CC(=O)N1CCCC1c1cccc(C)c1 (centres unmarked) [1-N11, 1-[2-(3-methylphenyl)pyrrolidin-1-yl]prop-2-en-1-one]",86.846%
27,"C=CC(=O)Nc1cc(SCc2ccccc2C)ncn1 [1-F08, N-(6-{[(2-methylphenyl)methyl]sulfanyl}pyrimidin-4-yl)prop-2-enamide]",109.421%
28,"C=CC(=O)N1CCCN(S(N)(=O)=O)CC1 [3-K10, 4-(prop-2-enoyl)-1,4-diazepane-1-sulfonamide]",92.0897%
29,"Cc1ccsc1-c1nnc(NC(=O)CCl)o1 [6-K03, 2-chloro-N-[5-(3-methylthiophen-2-yl)-1,3,4-oxadiazol-2-yl]acetamide]",105.109%
